Assay results as given in the supplement of paper PMC9174493.
This is one part of the list. Single values of this set are uncertain. Values with irradiation are relative to irradiated vehicle.

Columns and labels:
A549-Dual [1] = test: NF-kB reporter (SEAP) activity, viability-corrected, relative to vehicle (fold change vs vehicle); higher = more activation of STING-IRF / NF-kB immune response reporter; conditions: 10 µM
A549-Dual [2] = test: ISRE reporter (Lucia luciferase) activity, viability-corrected, relative to vehicle (fold change vs vehicle); higher = more activation of STING-IRF / NF-kB immune response reporter; conditions: 10 µM
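For NF-kB reporter (SEAP) activity, viability-corrected, relative to vehicle in this document: viability correction based on the alamar blue assay, with concentrations leaving 10% survival or less dropped.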

Row | SMILES | NF-kB reporter (A549-Dual [1]; irradiation: 8 Gy/4 fr) | NF-kB reporter (A549-Dual [1]; irradiation: none) | ISRE reporter (A549-Dual [2]; irradiation: 8 Gy/4 fr) | ISRE reporter (A549-Dual [2]; irradiation: none)
1 | O=c1ccc2ccccc2o1 [Coumarin] | 0.859 | 1.32 | 0.724 | 0.761
2 | Nc1nc(N)nc(-c2cc(Cl)ccc2Cl)n1 [Irsogladine] | 0.858 | 0.951 | 0.961 | 0.777
3 | N[C@@H](Cc1cc(I)c(Oc2cc(I)c(O)c(I)c2)c(I)c1)C(=O)O [L-Thyroxine] | 1.03 | 1.1 | 0.718 | 0.672
4 | CNC(=O)c1cnn(-c2nc(N)c3ncn(C4OC(CO)C(O)C4O)c3n2)c1 (stereo not drawn) [Regadenoson] | 0.721 | 0.567 | 0.74 | 0.432
5 | C[N+](C)(C)CCOC(=O)CCC(=O)OCC[N+](C)(C)C.O.O.[Cl-].[Cl-] [Succinylcholine Chloride Dihydrate] | 0.786 | 1.74 | 0.655 | 0.89
6 | CC(O)C1C(=O)N2C(C(=O)O)=C(SCCNC=N)CC12.O (stereo not drawn) [Imipenem] | 0.907 | 0.792 | 0.918 | 0.922
7 | CC(CCC(=O)O)C1CCC2C3C(=O)CC4CC(=O)CCC4(C)C3CC(=O)C12C (stereo not drawn) [Dehydrocholic acid] | 0.91 | 0.984 | 0.915 | 0.771
8 | CN1CCCN=C1/C=C/c1cccc(O)c1.O=C(O)c1cc2ccccc2c(Cc2c(O)c(C(=O)O)cc3ccccc23)c1O [Oxantel Pamoate] | 0.908 | 1.22 | 0.352 | 0.344
9 | CC(=O)C1(O)CCC2C3CC(C)C4=CC(=O)C=CC4(C)C3(F)C(O)CC21C (stereo not drawn) [Fluorometholone] | 0.289 | 0.747 | 0.0523 | 0.212
10 | CC12CCC3c4ccc(O)cc4CCC3C1CCC2=O (stereo not drawn) [Estrone] | 0.764 | 0.985 | 0.584 | 0.724
11 | O=C([O-])CN(CCN(CC(=O)[O-])CC(=O)[O-])CC(=O)[O-].[Ca+2].[Na+].[Na+] [edetate calcium disodium] | 0.776 | 0.579 | 0.893 | 0.587
12 | COc1ccc(CC(C)NCC(O)c2ccc(O)c(NC=O)c2)cc1.O=C(O)C(O)C(O)C(=O)O (stereo not drawn) [Arformoterol Tartrate] | 0.977 | 0.714 | 1.27 | 0.712
13 | CC(C)(Oc1ccc(C(=O)c2ccc(Cl)cc2)cc1)C(=O)[O-].C[N+](C)(C)CCO [Choline Fenofibrate] | 0.667 | 0.652 | 0.614 | 0.475
14 | CO/N=C(\C(=O)NC1C(=O)N2C(C(=O)[O-])=CCSC12)c1csc(N)n1.[Na+] (stereo not drawn) [Ceftizoxime sodium] | 0.827 | 0.981 | 0.767 | 0.769
15 | CCCCCCOC(=O)N=C(N)c1ccc(NCc2nc3cc(C(=O)N(CCC(=O)OCC)c4ccccn4)ccc3n2C)cc1 [Dabigatran Etexilate] | 0.726 | 0.961 | 0.832 | 0.93
16 | CCCCCCCCCCCCOC(=O)CS(=O)(=O)[O-].[Na+] [Sodium Houttuyfonate] | 0.82 | 0.819 | 0.826 | 0.812
17 | COc1ccc2c(c1)c(CC(=O)[O][Na])c(C)n2C(=O)c1ccc(Cl)cc1.O.O.O [Indometacin Sodium] | 0.89 | 0.779 | 0.604 | 0.573
18 | CCCCCCCCCCCCN1CCCCCC1=O [Laurocapram] | 0.333 | 0.448 | 0.273 | 0.345
19 | CC(=O)NC(CCC(N)=O)C(=O)O (stereo not drawn) [Aceglutamide] | 0.659 | 2.14 | 0.772 | 0.92
20 | Cc1cc(C2CCCCC2)n(O)c(=O)c1 [Ciclopirox] | 0.562 | 1.24 | 0.17 | 0.797
21 | O=C([O][Ca][O]C(=O)C(O)C(O)C(O)C(O)C(O)CO)C(O)C(O)C(O)C(O)C(O)CO (stereo not drawn) [Calcium Gluceptate] | 1.16 | 0.881 | 1.08 | 0.931
22 | COc1ccccc1OCC(O)CO (stereo not drawn) [Guaifenesin] | 0.515 | 0.661 | 0.802 | 0.648
23 | CC(=O)OC1CC2(C)C(CC(O)C3C4(C)CCC(O)C(C)C4CCC32C)/C1=C(\CCC=C(C)C)C(=O)O (stereo not drawn) [Fusidine] | 0.696 | 0.781 | 0.854 | 0.877
24 | Cl.c1ccc2c(CC3=NCCN3)cccc2c1 [Naphazoline HCl] | 1.18 | 1.07 | 0.985 | 1.07
25 | CN1CCN(C2=Nc3ccccc3Oc3ccc(Cl)cc32)CC1.O=C(O)CCC(=O)O [Loxapine Succinate] | 0.96 | 0.794 | 1.22 | 1.14
26 | CCC(NC(C)C)C(O)c1ccc(O)c(O)c1.CS(=O)(=O)O (stereo not drawn) [Isoetharine Mesylate] | 1.59 | 1.03 | 0.371 | 0.52
27 | CCOC(=O)C1=C(COCCN)NC(C)=C(C(=O)OC)C1c1ccccc1Cl (stereo not drawn) [Levamlodipine] | 0.768 | 0.929 | 0.959 | 1.58
